The campaign covered roughly 46,000 compounds. About 60 (0.1%) were called active. About 3% were inconclusive and are not listed. Calls follow the shape of the dose curve; as a rule, active = well fitted inhibition curve with a large enough effect; inconclusive = small, poorly fitted or top-dose-only effect; inactive = no such curve, though single readings can be large or run the other way. This is one part of the list.
Assay: Primary qHTS assay for Inhibitors of ovarian cancer metastasis using an organotypic tumor microenvironment (TME) model. Also: nearly all actives have a fitted effect of over 65% in size.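 As to activity change, negative = inhibition: plate controls were DMSO wells for no effect and tomatine positive control wells for full effect.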
Conditions: SKOV3ip1-GFP adhesion/invasion on 3D omental model, fluorescence; series mostly up to 45.8 µM; activity change, negative = inhibition: at the top concentration
Method in brief: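 Adhesion/invasion was scored as fixed GFP-labeled SKOV3ip1 cell counts (488/509 nm), normalized to DMSO and tomatine controls. Cancer cells in serum-free medium, with four compound doses (0.36-46 umol/L), sat 2 hr at RT then 16 hr at 37 C on a 48 hr fibroblast/mesothelial/ECM culture.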

outcome, inactive:
CCN(CC)C(=O)CSc1nc2cc3c(cc2c(=O)n1CCCCCC(=O)NCCc1ccc(OC)c(OC)c1)OCO3, O=C(COc1ccc([N+](=O)[O-])cc1)Nc1cccc2cccnc12, O=C(CSc1nc2c([nH]c3ccccc32)c(=O)n1-c1ccc(F)cc1)NC1CCCCC1, COc1cc(Cl)c(C)cc1NC(=O)Cn1ncc2c(=O)oc3ccccc3c21, COc1cc(NC(=O)C2CCCN(S(=O)(=O)c3ccc4c(c3)CCCC(=O)N4)C2)cc(OC)c1 (centres undefined), CCC(Sc1nc2nccnc2c(=O)n1Cc1ccc(F)cc1)C(=O)NC1CCCCC1 (centres undefined), COc1ccc(C(=O)Nc2ccc(OCc3cc(=O)n4ccsc4n3)cc2)cc1OC, Cc1cc(=O)n2nc(N3CCC(C(=O)NCc4ccccc4)CC3)sc2n1, O=C(C1CCN(S(=O)(=O)c2cccc3nonc23)CC1)N1CCN(c2ccccc2F)CC1, CCN1CCN(C(=O)Cn2ncc3c4ccccc4n(Cc4ccccc4)c3c2=O)CC1, O=C(CCS(=O)(=O)c1ccc(Br)cc1)Nc1ccc(Cl)c(C(F)(F)F)c1, Cc1ccccc1NC(=O)C1CCN(C(=O)c2cnn(-c3ccccc3)c2-n2cccc2)CC1, Fc1cc(F)c2ncc3c(-c4ccccc4)nn(-c4cccc(Cl)c4)c3c2c1

Activity change, negative = inhibition, inactive:
O=C(CN1C(=O)C2(CCCC2)NC[C@H]1c1cc(F)cc(F)c1)Nc1ccc2c(c1)C[C@@]1(C2)C(=O)Nc2ncccc21 5.04%, COc1ccc(OCc2ccc(-c3nc(C#N)c(N4CCN(c5cccc(Cl)c5)CC4)o3)o2)cc1 -13%, CCc1ccccc1NC(=O)CSC1=Nc2ccccc2C2=NC(Cc3ccccc3)C(=O)N12 (centres undefined) -18.1%, CCCN(CCC)c1nc(-c2ccccc2F)nc2ccccc12 -2.51%, COc1ccc(-c2nc(SCC(=O)c3ccc(OC)c(Br)c3)n[nH]2)cc1 8.98%, CCC(C(=O)OC)n1cnc2c(cnn2-c2ccc(F)cc2)c1=O (centres undefined) -4.17%, CCc1cccc(NC(=O)C2CCC(CNS(=O)(=O)c3csc(C(N)=O)c3)CC2)c1 (centres undefined) 6.56%, CCOc1cccc(C2c3[nH]c4ccccc4c3CCN2C(=O)CCC2CCCC2)c1 (centres undefined) 9.98%, CSc1ncc(Cl)c(C(=O)Nc2ccc(S(=O)(=O)N3CCCC(C)C3)cc2)n1 (centres undefined) 26.4%, COc1ccc2cc(C(=O)NCc3ccc4c(c3)CCN4C(=O)c3ccccc3)[nH]c2c1 -7.58%, CCn1c(=O)cc(SCC(=O)NCc2ccccc2OC)c2ccccc21 5.02%, Cc1cccc(C(=O)NC(=O)Nc2ccc(-c3cc(C(F)(F)F)nn3-c3ccccc3)cc2)c1 -4.68%, CCc1ccc(CNC(=O)c2cnc3sc(N4CCCCC4)nn3c2=O)cc1 3.29%, Cc1ccc(NC(=O)Cn2cnc3nc4c(cc3c2=O)CCCC4)cc1Cl -18.1%, CC(C)(C)OC(=O)N1CCC(c2c(C(=O)NCc3ccco3)cnn2-c2ccccc2)CC1 -2.3%, CCc1ccc(S(=O)(=O)Nc2cccc(-c3ccc(N4CCC(C)CC4)nn3)c2)s1 4.23%, Cc1cc(NC(=O)NCc2ccc3c(c2)CCN3C(=O)c2ccccc2)ccc1Br 5.13%, CCOc1ccc(S(=O)(=O)c2cn(Cc3ccccc3)c3ccc(OCC)cc3c2=O)cc1 -4.91%, Cc1nn(-c2ccc(F)cc2)c(-n2cccc2)c1C(=O)NCCCN1CCN(c2cccc(Cl)c2)CC1 28.7%, CCOC(=O)c1sc2ccccc2c1S(=O)(=O)N1CCN(c2cccc(C)c2C)CC1 0.658%, Cc1cc(C)c2c(=O)cc(C(=O)Nc3ccc(S(=O)(=O)N(C)Cc4ccccc4)cc3)oc2c1 -7.26%, O=C(Cn1cc(C(=O)c2ccco2)c2ccccc21)Nc1ccccc1Cl -7.18%, O=C(NCc1cccnc1)C(=O)NCC(c1cccnc1)N1CCN(c2ccccc2F)CC1 (centres undefined) 3.96%, Cc1ccc(/C=C/C(=O)Nc2ccc(S(N)(=O)=O)cc2)o1 9.97%, Cc1ccc(-c2cc(NC(=O)COc3ccc(Cl)c(C)c3)on2)cc1 1.03%, Cc1cc(C)c(NC(=O)CN2C(=O)c3cccnc3Oc3ccc(C)cc32)c(C)c1 -3.61%, Cc1ccc(C(c2ccccc2)c2c(C)[nH]c3ccccc23)s1 (centres undefined) -8.01%, Nc1nnc(SCC(=O)Nc2ccccc2)s1 -4.22%, COc1ccccc1CCNC(=O)C(=O)NCC(c1cccs1)S(=O)(=O)c1ccccc1 (centres undefined) 8.45%, CCOC(=O)c1cccc(NC(=O)c2cn(-c3cccc(OC)c3)c(=O)c3ccccc23)c1 -4.5%, Cn1cncc1[C@@](N)(c1ccc(Cl)cc1)c1ccc2c(c1)c(-c1cccc(Cl)c1)cc(=O)n2C -2.23%, Cc1cc(C)c(Cn2c3ccccc3c3cnn(CC(=O)NCc4ccccn4)c(=O)c32)c(C)c1 -25.5%, COc1ccc(-c2cc(C(F)(F)F)nc(-n3nc(C(F)(F)F)cc3C)n2)cc1 -15.7%, Cc1cccc(-c2nc3nc(C)cc(NCc4ccccc4Cl)n3n2)c1 -10.2%, COc1cc(NC(=O)N(Cc2ccco2)C2CCN(C(C)=O)CC2)cc(OC)c1OC -11.9%, Cc1cccc(Cn2c(=O)n(Cc3ccccc3)c(=O)c3oc4ccccc4c32)c1 0.143%, Cc1ccc(Sc2ccc(N3CCC(C(=O)Nc4ccc(C)c(F)c4)CC3)nn2)cc1 4.92%, CC(C)OCCCNC(=O)C(=O)Nc1ccc2nc3n(c(=O)c2c1)CCCCC3 6.79%, O=C(NCC(c1cccs1)S(=O)(=O)c1cccs1)c1ccc(Cl)cc1 (centres undefined) -5.96%, Cc1ccc(-n2c(SCC(=O)NCc3ccccc3)nc3n[nH]c(C)c3c2=N)cc1Cl -1.8%, CCc1ccc(-n2c(N3CCN(c4cccc(Cl)c4)CC3)nc3ccccc3c2=O)cc1 8.09%, CC1CCN(c2oc(-c3ccc(COc4ccccc4)o3)nc2C#N)CC1 5.42%, CC(=O)c1ccc(NC(=O)c2nc(-c3ccccc3)n(-c3ccc(Cl)cc3)n2)cc1 -7.52%, CCOc1ccc(NC(=O)Cn2c(=O)n(Cc3nc(-c4ccccc4)no3)c(=O)c3cc4c(cc32)OCO4)cc1 5.17%, CC(=O)N1CCc2cc(Br)cc(S(=O)(=O)N3CCC(C)CC3)c21 13.3%, Cc1ccc(-c2nc3nc(C)cc(C)n3c2Nc2ccc3c(c2)OCCO3)cc1 -5.47%

Source: PubChem BioAssay AID1963576 (National Center for Advancing Translational Sciences (NCATS), 2024)
